The whole screen tested about 110,000 compounds, of which about 230 (0.21%) showed an effect of 50% or more. Some of the results follow.
Target: DPAP1 (Plasmodium falciparum, UniProt Q8IIJ9)
Assay: primary screen, percent inhibition; read by cleavage of a fluorogenic dipeptide substrate; higher = more effect of the substance
Parameters: species or system P. falciparum D10 trophozoite lysates; single well
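Note: 30 min substrate incubation versus DMSO and 10 µM JCP410 controls.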

Sequence of DPAP1 (Q8IIJ9 whole entry, looked up): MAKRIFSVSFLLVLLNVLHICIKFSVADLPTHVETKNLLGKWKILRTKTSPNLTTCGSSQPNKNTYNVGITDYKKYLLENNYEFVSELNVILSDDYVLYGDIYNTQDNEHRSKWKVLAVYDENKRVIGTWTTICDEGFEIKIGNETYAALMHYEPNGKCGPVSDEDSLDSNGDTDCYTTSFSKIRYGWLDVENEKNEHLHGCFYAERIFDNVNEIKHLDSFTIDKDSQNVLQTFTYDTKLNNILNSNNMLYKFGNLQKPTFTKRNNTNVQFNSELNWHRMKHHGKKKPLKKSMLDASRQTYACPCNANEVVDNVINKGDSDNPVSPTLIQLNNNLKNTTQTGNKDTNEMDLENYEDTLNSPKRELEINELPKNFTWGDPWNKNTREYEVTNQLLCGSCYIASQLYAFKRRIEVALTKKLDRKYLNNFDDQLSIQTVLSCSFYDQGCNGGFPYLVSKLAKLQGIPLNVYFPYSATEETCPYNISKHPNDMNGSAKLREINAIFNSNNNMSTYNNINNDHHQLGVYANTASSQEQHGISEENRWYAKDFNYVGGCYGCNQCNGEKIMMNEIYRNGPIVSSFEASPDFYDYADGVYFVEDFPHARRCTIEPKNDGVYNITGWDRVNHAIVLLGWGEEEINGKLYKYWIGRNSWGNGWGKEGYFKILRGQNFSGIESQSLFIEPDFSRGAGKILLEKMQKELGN

| Structure (SMILES) | % Inhibition @ 10 uM [%] |
| --- | --- |
| Cc1ccc(CSc2nc3nccnc3c(=O)n2Cc2ccccc2)cc1 | 1.1 |
| COc1ccc(S(=O)(=O)N2CCN(C/C=C/c3ccccc3)CC2)cc1 | 1.87 |
| CC(=O)N1CCN(Cc2ccc(F)cc2)CC1 | 7.1 |
| O=C1c2ccccc2C(=O)N1CCc1c[nH]c2ccccc12 | -1.76 |
| O=C(Nc1ccc(CN2CCOCC2)cc1)c1ccccc1F | -3.95 |
| COC(=O)C1=CN(C)C=C(C(=O)OC)C1c1cccc(Oc2ccccc2)c1 | 4.99 |
| Cc1cc(C)c(NC(=O)c2sccc2C)c(C)c1 | -4.52 |
| CN1CCN(C(=O)Cn2cccc2C(=O)c2ccccc2)CC1 | 1.15 |
| Nc1c(C(=O)Nc2ccc3c(c2)OCO3)sc2nc(-c3ccc(F)cc3)ccc12 | 8.93 |
| Fc1ccccc1N1CCN(C2N=CNc3sc4c(c32)CCCC4)CC1 (stereo not shown) | -4.71 |
| CCc1cc2c(cc1OC)OCC(c1ccc3c(c1)OCCO3)C2=O (stereo not shown) | -2.59 |
| COC(=O)c1c(NC(=O)c2ccccc2OC)sc(C)c1C | 38.9 |
| COC(=O)c1cnn2c(O)cc(C3CCNCC3)nc12 | 4.01 |
| COc1cccc2cc(-c3ccc([N+](=O)[O-])cc3)c(=O)oc12 | -4.5 |
| CNC(=O)NC1OC(CO)C(O)C(O)C1O (stereo not shown) | 1.57 |
| Cc1ccc(-c2nc(CS(=O)CC(=O)NCCN3CCOCC3)c(C)o2)cc1 (stereo not shown) | 3.99 |
| COc1ccc(CCNC(=O)CSc2nc3cc(OC)c(OC)cc3c3nc(C)nn23)cc1OC | -0.499 |
| CCc1nn(CC(=O)NCc2ccc(F)cc2)c(=O)c2cc3cc(F)ccc3n12 | -1.7 |
| C=CCNc1nc(OC(C(F)(F)F)C(F)(F)F)nc(N2CCCCC2)n1 | 7.24 |
| Cc1onc(-c2ccccc2Cl)c1C(=O)Nc1ccc(C(N)=O)cc1 | -1.2 |
| C=C(C)C(=O)OCCc1ccc(O)c(-n2nc3ccccc3n2)c1 | 2.45 |
| COc1ccc(C(=O)C2=C(O)C(=O)N(CCCN(C)C)C2c2cccc(O)c2)cc1F (stereo not shown) | -13.9 |
| CCc1ccc(CNC(=O)c2ccc(CS(=O)(=O)Cc3ccccc3Cl)o2)cc1 | -5.43 |
| CC(C)CC(NC(=O)N1CCN(S(=O)(=O)c2ccc3ccccc3c2)CC1)C(=O)NCCCCNC(=O)OCc1ccccc1 (stereo not shown) | -2.35 |
| O=C1c2cccc3cccc(c23)C(=O)C1c1ccccn1 | 3 |

| Structure (SMILES) | % Inhibition @ 10 uM [%] |
| --- | --- |
| COc1ccc2c(c1)Cc1sc(NC(=O)c3ccc(OC)c(Br)c3)nc1-2 | 4.84 |
| CCN(CC)CC#CC(CC)(CC)OC(C)=O | -0.261 |
| CCOC(=O)c1c(C)oc2ccc(OCC(=O)c3ccc(Br)cc3)cc12 | 1.37 |
| CCOc1ccc(/C=C2/C=C(c3cc(OC)ccc3OC)OC2=O)cc1 | 4.74 |
| CCN1C(=O)C2C3c4ccccc4C(C(=O)O)(c4ccccc43)C2C1=O (stereo not shown) | 11.5 |
| CCSC(C)CC1CC(=O)c2c(oc(C)c(CC)c2=O)C1 (stereo not shown) | -0.233 |
| CC1(C)CC(C)(c2ccc(O)cc2O)NC(=S)N1 (stereo not shown) | -6.06 |
| CC1(C)CC2=NC(SC3C=CCCC3)=C(C#N)C(c3ccccc3)C2=C(O)C1 (stereo not shown) | -0.261 |
| Cc1ccc(N2CCN(Cc3ccoc3)CC2)cc1 | 4.68 |
| COc1ccc(N(CC(=O)NC2CC2)S(=O)(=O)c2ccc(C)cc2)cc1OC | 4.83 |
| COc1ccc(-c2cccc(C(=O)N[C@@H](CC(C)C)C(=O)NCC#N)c2)cc1 | 2.87 |
| CCOC(=O)N1CCC(n2c(SCC(=O)c3ccc(Cl)cc3)nc3ccsc3c2=O)CC1 | 0.0592 |
| CC1=C(C(=O)NCc2ccccc2)C(c2ccc(F)cc2)NC(S)=N1 (stereo not shown) | -1.24 |
| CCN(CC)CCn1c(NCc2ccccc2OC)nc2ccccc21 | -2.91 |
| COc1ccc(-c2cc(C(F)F)n3ncc(C(=O)NCCc4ccccc4OC)c3n2)cc1 | -0.0619 |
| CC1CC(=O)C2=C(C1)OC(N)=C(C#N)C2c1ccc2ccccc2c1 (stereo not shown) | -3.79 |
| CCN(CC)CCNC(=O)CCc1c(C)nc2cc(-c3ccc(OC)cc3OC)nn2c1C | -2.25 |
| CSc1ccc(C2Nc3ccc4ccccc4c3C3=C2C(=O)CC(C)(C)C3)cc1 (stereo not shown) | 2 |
| CCOc1ccc(/C=C2\SC(N3CCN(C)CC3)=NC2=O)cc1 | -5.85 |
| CNC(=O)C(=O)Nc1ccc(OC)c(OC)c1 | -0.414 |
| O=C(c1cc(-c2ccccc2)[nH]n1)N1CC=C(c2ccccc2)CC1 | 3.3 |
| O=C(NCc1ccccc1Cl)C1CCN(C(=O)c2sccc2-n2cccc2)CC1 | 1.72 |
| CCOC(=O)C1=C(CNCCc2ccc(OC)cc2)NC(=O)NC1c1cc(C)ccc1C (stereo not shown) | -3.76 |
| CN(C)CCN(C(=O)c1ccco1)c1nc2ccc(F)cc2s1 | 0.174 |
